Source: ChEMBL document CHEMBL4888484, “Replenishing the malaria drug discovery pipeline: Screening and hit evaluation of the MMV Hit Generation Library 1 (HGL1) against asexual blood stage Plasmodium falciparum ,using a nano luciferase reporter read-out” (2022)
About 540 (0.36%) of roughly 150,000 compounds showed an effect of 50% or more. Some of the results follow.

The compounds below were run on Plasmodium falciparum (assay: Primary screen in NF54 nanoGlo assay, in single point, at 2uM, 72h; a lower Z score goes with more inhibition). Settings: timepoint 72 hour.
Format: functional, Erythrocyte

Row | SMILES | % Inhibition | Z score
1 | O=C(c1ccc(NS(=O)(=O)c2cnc3n2CCC3)cc1)C1CCC1 | -17% | 1.94
2 | COc1ccc(S(=O)(=O)N2CCOCC2)cc1NC(=O)C1(c2ccc(F)cc2)CCC1 | -4% | 0.8
3 | CC(=O)Nc1ccc(-n2ccnc2-c2nccn2C)cc1 | 2% | -0.35
4 | COc1cccc(Oc2nc(N3CCN(C)CC3)nc3c2CN(Cc2ccc4c(c2)OCO4)CC3)c1 | 1% | -0.12
5 | Cc1ccc(-c2noc(C(=O)N3CCCCC3)n2)cc1S(=O)(=O)NC1CC1 | -9% | 1
6 | O=C(Nc1cccc(F)c1)c1cc(-c2ccc(F)cc2)ns1 | 3% | -0.53
7 | COc1cc(Br)ccc1CNC(=O)NC[C@H](C)OC | 14% | -1.29
8 | Cc1cc(Cn2cc(CCc3ccccc3)nn2)n[nH]1 | -9% | 1.07
9 | Cc1ccc(-c2noc(C3CCOC3c3ccc(Cl)c(F)c3)n2)cc1 (stereo not given) | -12% | 1.49
10 | COc1ccc([C@@H](Nc2nc(N3CCCC3)nc(N3CCCC3)n2)c2nccn2C)cc1 | -3% | 0.49
11 | O=S1(=O)CCC(n2cc(CNC3CCc4cc(F)ccc43)cn2)C1 (stereo not given) | -2% | 0.21
12 | Cn1nccc1CNc1nnc(-c2ccc(S(C)(=O)=O)cc2)o1 | -9% | 1.42
13 | O=C(N[C@H](c1ccccc1F)C1CCCC1)C1CCN(C(=O)c2ccco2)CC1 | -9% | 0.87
14 | CC(=O)Nc1c(-c2ccccc2)c(C)nn1-c1ccc(C(=O)N2CCN(C3CCCCC3)CC2)cc1 | -10% | 1.73
15 | c1ccc(-c2ncc3c(n2)CCC[C@@H]3NCc2ccncc2)cc1 | -1% | 0.09
16 | O=C(Nc1ccccc1)c1ccc(COc2cccc3ccccc23)cc1 | -7% | 0.81
17 | O=C(O)C1CCN(S(=O)(=O)N2CCCC[C@@H]2CCc2cccs2)CC1 | -4% | 0.7
18 | O=C(O)C1(Oc2ccc(Cl)cc2)CCN(c2ncnc3[nH]cnc23)CC1 | 4% | -0.58
19 | CCN=C(NC)NCC1(CCOCC)CCCC1 | -5% | 0.89
20 | O[C@@H]1CCN(Cc2ccccc2OCCCCN2CCOCC2)C1 | 8% | -0.72
21 | CN(C)Cc1ccc(-c2ccc3c(ccn3CC(=O)Nc3cnn(C)n3)c2)cc1 | 13% | -1.74
22 | CCNC(=O)N1CCC(NC(C)c2sc(CC)nc2C)C1 (stereo not given) | 0% | -0.05

Row | SMILES | % Inhibition | Z score
23 | COc1ccc(COn2c(=O)c(C)[n+]([O-])c3ccccc32)cc1OC | -9% | 1.41
24 | Cc1noc(Cl)c1CCC(=O)OC[C@H]1CCCN1C(N)=O | -6% | 0.83
25 | O=C1CN(Cc2cc3ccc(Cl)cc3nc2-c2ccsc2)CCN1 | -8% | 0.93
26 | COC[C@H](NC1CCC(NC(C)=O)CC1)c1ccc(C)o1 (stereo not given in full) | 5% | -0.7
27 | Cc1cc(=O)c(OCC(=O)NCCc2nccs2)cn1C | 32% | -3.6
28 | Cc1ncc(-c2ccc(S(=O)(=O)NCc3ccco3)cc2)o1 | 4% | -0.76
29 | CN(C)C(C)(C)CNc1nnc(C(F)(F)F)s1 | -9% | 1.56
30 | Cn1cnn(CC(=O)N(c2ccc(F)cc2)C2CCCC2)c1=O | 3% | -0.34
31 | COC(=O)c1cc(CN2CCc3c(F)cc(F)cc32)c[nH]1 | 4% | -0.78
32 | O=S(=O)(NC1C2CCOC2C12CCCC2)[C@H]1C[C@@H]1c1ccccc1 (stereo not given in full) | 1% | -0.16
33 | Cc1ccc(N(CCC#N)C(=O)COC(=O)c2ccc(OCc3ccccc3)cc2)cc1 | -6% | 0.92
34 | C[C@H](O)C(=O)N1CCc2[nH]c(-c3ccccc3)nc2C1 | -5% | 0.94
35 | Cc1nc(N)sc1CC(=O)NC(C)(C)CC(C)C | -7% | 1.32
36 | COc1cc(=O)n(-c2ccccc2)cc1C(=O)N[C@@H](Cn1nccn1)C(C)C | -3% | 0.52
37 | Cc1ccc2nc(N3CCC(C(=O)NCCCN4CCN(c5cccc(Cl)c5)CC4)CC3)[nH]c2c1 | 5% | -0.74
38 | Cc1ccccc1C(=O)N1CCCN(c2nc(Cc3ccccc3)nc3onc(-c4ccccc4)c23)CC1 | -5% | 0.51
39 | COc1ccccc1CC(=O)N1CCC[C@H]1c1cc(C(C)C)no1 | -22% | 2.89
40 | CO[C@@H](C)CS(=O)(=O)Nc1c(C)c(C#N)nn1-c1ccccc1 | -12% | 2.32
41 | O=C(C[C@H]1COCCN1C(=O)Nc1ccccc1F)NCCc1ncc[nH]1 | 11% | -1.5
42 | Clc1ccc(-c2nc(Nc3cccc4ccccc34)c3ccccc3n2)c(Cl)c1 | -7% | 0.82
43 | Cc1oc(C(C)C)cc1C(=O)N1CC(C)[S+]([O-])C(C)C1 (stereo not given) | -2% | 0.27
44 | CCn1nccc1CN(C)C(=O)c1ccnn1C(F)F | -42% | 4.91

Row | SMILES | % Inhibition | Z score
45 | CS(=O)(=O)N[C@H]1CC12CCN(C(=O)c1ccccn1)CC2 | 10% | -1.29
46 | CCn1ccnc1CN(C)Cc1cc(C)cc(C)n1 | -8% | 1.16
47 | CC(C)C(=O)N1CCN(c2nc3ccccc3c3nnc(C(C)C)n23)CC1 | -3% | 0.51
48 | CCC(=O)N1CCC[C@@](NCCCOC)(c2nnnn2C2CCCC2)C1 | -5% | 0.65
49 | CCn1nc(CC(C)C)cc1C(=O)N1CCN(Cc2cccc(C)c2)C(=O)[C@@H]1C | -14% | 1.8
50 | Cn1cc(CN2CCCCc3ccccc32)cn1 | -36% | 4.21
51 | COc1cccc(-n2c(=O)c3ccccc3n([C@@H](C)C(=O)NCc3cccc(C(F)(F)F)c3)c2=O)c1 | 2% | -0.27
52 | CC1CC(C)CN(C2=NC(=O)C(CC(=O)Nc3cccc(Cl)c3)N2)C1 (stereo not given) | 28% | -3.14
53 | Cc1cnc(OC2CCN(Cc3cc4ccccc4[nH]c3=O)CC2)nc1 | -8% | 0.99
54 | CN(Cc1ccccc1)c1cnn(Cc2nnc(-c3ccco3)o2)c(=O)c1 | -32% | 3.1
55 | c1ccc(-c2nc(-c3cccc(-c4nc(-c5ccccc5)nc5ccccc45)c3)c3ccccc3n2)cc1 | 0% | 0.02
56 | Cc1ccc(Cl)cc1NC(=O)N1CCC(c2nnc(C(=O)Nc3ccccc3)s2)CC1 | -7% | 0.66
57 | CN(C)C(=O)c1cccnc1-c1cccc2cccnc12 | 4% | -0.49
58 | Cc1nc(C)c(C(=O)Nc2nccn2C)s1 | 2% | -0.32
59 | Cc1ccc(NC(=O)c2c[nH]c3nc(C)ccc3c2=O)cc1 | -14% | 1.92
60 | O=C(NCc1ccc(C2CC2)nc1)c1cscn1 | 18% | -2.32
61 | Cc1cccc2[nH]c(COCC(=O)NCCc3csc(N)n3)nc12 | -5% | 0.66
62 | CCN1CCCC[C@@H]1CNS(=O)(=O)CC1CCCC1 | 4% | -0.74
63 | Cc1nnc(-c2ccccc2NC(=O)[C@H](C)OCC2CC2)o1 | -5% | 0.53
64 | Cc1cccc(-c2cncc(C(=O)NC3CCCCC3)c2)c1C | -15% | 1.77
65 | COC1CN(Cc2cncnc2)CCC1C (stereo not given) | -22% | 3.18
66 | CC(C)(C)c1noc(CNS(=O)(=O)N2CCCC2)n1 | -16% | 2.06

Row | SMILES | % Inhibition | Z score
67 | CC1CCCC(NCC(C)(C)CCC#N)C1 (stereo not given) | -9% | 1.17
68 | Cc1ccc(CCNC(=O)C2CCCC2)o1 | -7% | 1.01
69 | CNS(=O)(=O)CCN1C[C@@](C)(Cc2ccc3c(c2)OCO3)CCC1=O | -6% | 0.83
70 | Cc1cccc(C)c1NC(=O)Nc1nnc2ccccn12 | 8% | -0.88
71 | Cn1c(C(F)(F)F)nn(CC(=O)OCc2ccccc2)c1=O | -13% | 1.49
72 | COCCN1C[C@@H](Cc2cc(C(=O)N3CCCCC3)ccn2)CC1=O | -12% | 1.32
73 | Cc1noc(C(F)F)c1C(=O)NC[C@H]1CS(=O)(=O)c2ccccc2O1 | -3% | 0.45
74 | CCCNC(=O)N(CCOC)Cc1c(C)nn(-c2ccccc2)c1Oc1ccc(OC)cc1 | 3% | -0.43
75 | c1cc(C2CC2)nnc1OC1CCCC1 | -1% | 0.13
76 | CN(CC(=O)NCCc1ccc(F)cc1)Cc1ncc[nH]1 | -2% | 0.27
77 | CC(C)(C)CC(C)(C)NC(=O)NCC1(CS(C)(=O)=O)CC1 | -10% | 1.14
78 | Cc1[nH]ccc1C(=O)N1CC[C@]2(CCN(C(=O)OC(C)(C)C)C2)C1 | 31% | -4.04
79 | O=S(=O)(NC1CCC2CCCCC2C1)c1ccco1 (stereo not given) | -2% | 0.32
80 | O=C(Cn1ncc2c([nH]c3ccccc32)c1=O)N1CCCCCC1 | -1% | 0.11
81 | Cc1cc(CN2CC[C@H](CNC(=O)c3c(F)cccc3F)C2)oc1C | -1% | 0.2
82 | COc1ccc2nc(C(F)(F)F)nc(N3CCNC(=O)CCN(C(=O)C(F)=C4CCCC4)CC3)c2c1 | 35% | -0.8
83 | COc1ccc(-c2noc(N3CCc4ccccc43)n2)cc1 | -17% | 1.49
84 | CCCNC(=O)CN1C(=O)CCCc2cc(S(=O)(=O)N3CCCCCC3)ccc21 | -5% | 0.68
85 | O=C(c1cc(-c2ccc(F)cc2)n[nH]1)N1CCC(n2nccn2)CC1 | 4% | -0.46
